Measurements from PubChem BioAssay AID588342 (National Center for Advancing Translational Sciences (NCATS), 2011).
Out of some 360,000 compounds screened, about 25,000 (6.9%) were called active. The shares of active, inactive and inconclusive entries below differ from those in the screen. The call rests on the fitted dose curve; in most records, active means well fitted inhibition curve with a large enough effect; inconclusive means small, poorly fitted or top-dose-only effect; inactive means flat fitted curve, though single readings scatter. Where the call is inconclusive, the potency comes from a doubtful curve fit.

Each molecule was assayed against Luciferin 4-monooxygenase (Photinus pyralis) (UniProt P08659) (assay: qHTS profiling assay for firefly luciferase inhibitor/activator using purifed enzyme and Km concentrations of substrates (counterscreen for miR-21 project)). Details: purified FLuc, luminescence inhibition; series mostly up to 57.5 µM.
Outline: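 Biochemical qHTS of compounds, final roughly 60 µM downward over six points, against 10 nM purified firefly luciferase using Km concentrations of substrates (10 uM D-luciferin, 10 uM ATP) in Tris acetate pH 7.5 buffer; luminescence output.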
Further: nearly all actives have a fitted effect of over 55% in size.
Potency means the concentration at half of the fitted maximal effect; tags describe the fitted curve by direction and shape.

Sequence of UniProt P08659 (P08659 whole entry, looked up): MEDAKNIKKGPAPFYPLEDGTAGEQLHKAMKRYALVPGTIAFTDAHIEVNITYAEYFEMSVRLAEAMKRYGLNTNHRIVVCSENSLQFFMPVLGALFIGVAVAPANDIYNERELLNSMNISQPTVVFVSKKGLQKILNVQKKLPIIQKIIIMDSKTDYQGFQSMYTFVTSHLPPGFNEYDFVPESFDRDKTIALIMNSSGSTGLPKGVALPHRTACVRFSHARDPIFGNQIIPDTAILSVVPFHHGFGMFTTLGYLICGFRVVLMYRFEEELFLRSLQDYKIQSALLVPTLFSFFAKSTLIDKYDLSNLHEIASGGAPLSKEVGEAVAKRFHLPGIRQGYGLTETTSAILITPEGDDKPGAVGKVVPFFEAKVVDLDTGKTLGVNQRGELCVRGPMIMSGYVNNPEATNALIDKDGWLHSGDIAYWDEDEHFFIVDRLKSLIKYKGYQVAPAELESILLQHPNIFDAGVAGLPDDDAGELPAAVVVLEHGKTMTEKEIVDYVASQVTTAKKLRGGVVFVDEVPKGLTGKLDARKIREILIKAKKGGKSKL

| Structure (SMILES) | Potency |
| --- | --- |
| N/C(=N\OC(=O)CCC1CCCCC1)c1cccnc1 | active: 19 µM |
| CN(C)/N=C/c1ccc(N2CCOCC2)cc1 | active: 16.9 µM |
| Cc1cccc2sc(NC(=O)C3CCCO3)nc12 (stereo not given) | inconclusive: 26.9 µM [inhibitor, single point] |
| CCOc1cc(CNn2cnnc2SCC(=O)NC(C)(C)C)ccc1OCC(=O)NC(C)(C)C | inactive |
| Cc1c(Cl)cccc1NC(=O)Nc1ccn(C)n1 | inconclusive: 19 µM [inhibitor, partial curve, poor fit] |
| Oc1ccc(-c2[nH]nc(-c3ccccc3)c2-c2nc3ccccc3[nH]2)cc1 | inactive |
| O=C(/C=C/c1ccc(-c2ccccc2[N+](=O)[O-])o1)c1ccco1 | active: 19 µM |
| O=C(N/N=C/c1ccc(Cl)cc1)c1nc2ccc([N+](=O)[O-])cc2c(=O)[nH]1 | inconclusive: 33.8 µM [inhibitor, partial curve, poor fit] |
| CCCCNC(=S)Nc1ccc(-c2nc3ccc(C)cc3s2)cc1 | active: 1.69 µM |
| COc1ccc(Nc2nc3[nH]c(=O)cc(O)c3s2)cc1 | inconclusive: 30.1 µM [inhibitor, partial curve, poor fit] |
| Cc1ccc(C)c(C(=O)OCC(=O)Nc2cccc(S(=O)(=O)NC3=NCCCCC3)c2)c1 | inactive |
| CSC1=C(C#N)C(=O)NC(c2ccccc2O)S1 (stereo not given) | inconclusive: 23.9 µM [inhibitor, single point] |
| CCOc1cc(/C=C/C(=O)O)ccc1OCCOc1ccccc1 | inconclusive: 26.9 µM [inhibitor, single point] |
| CC(=O)Nc1ccc(SCCCC(=O)c2ccccc2)cc1 | active: 23.9 µM |
| Cc1ccc(/C=C/C(=O)c2cc(Br)ccc2OC(=O)c2ccco2)cc1 | inconclusive: 19 µM [inhibitor, partial curve, poor fit] |
| Cc1cc(C(=O)OCC(=O)NCc2ccc3c(c2)OCO3)c2ccccc2n1 | inconclusive: 23.9 µM [inhibitor, single point] |
| Cc1ccc(N=C2NC(=O)/C(=C/C=C/c3ccco3)S2)cc1C | inconclusive: 21.3 µM [inhibitor, partial curve, poor fit] |
| O=C(CSc1ncc(S(=O)(=O)c2ccc(Cl)cc2)c(=O)[nH]1)Nc1cccc(C(F)(F)F)c1 | inconclusive: 8.49 µM [inhibitor, partial curve] |
| CCOC(=O)c1c(C)[nH]c(C(=O)COC(=O)C2CC2)c1C | active: 9.53 µM |
| COc1ccc(-c2cc3nc(C)c(CCC(=O)NC4CCCCC4)c(C)n3n2)c(OC)c1 | inactive |
